Two compounds from US20250019377A1 (JACOBIO PHARMACEUTICALS CO., LTD, priority 2021, published 2025) can be followed below.

What is called IC50 is the concentration that inhibits the measured activity by half.

A value given as a limit tells only on which side of the number the result lay.

In test [1] the test system is p-ERK in SW620 cells (K-Ras G12V). Description: Phospho-ERK1/2(THR202/TYR204) HTRF assay, SW620. It counts as cell-based. The settings on record: Homo sapiens, SW-620, 2 h, 2 hours incubation. Background: In TR-FRET formats the signal depends on donor and acceptor labels being close together.
The next test has as its system SW620 cells (K-Ras G12V). Description: 2D cell growth inhibition assay, SW620. It counts as cell-based. The settings on record: Homo sapiens, SW-620, 144 h, 6 days, absolute IC50.
The test system of test [2] is AsPC-1 cells (K-Ras G12D). Description: 2D cell growth inhibition assay, AsPC-1. In kind it is cell-based. The note with it: Homo sapiens, ASPC1, 144 h, AsPC-1, K-Ras G12D, 6 days, absolute IC50.
For test [3], the target named is T1, K-Ras WT (Homo sapiens, UniProt P01116). Briefly: GTP-K-Ras and cRAF interaction assay (GppNp-K-Ras), K-Ras WT. The settings on record: read-out: K-Ras WT GppNp Biochemical Activity (IC50).
Test [4] deals with p-ERK in AGS cells (K-Ras G12D). Description: Phospho-ERK1/2(THR202/TYR204) HTRF assay, AGS. The settings on record: Homo sapiens, 2 h, 2 hours incubation. In kind it is cell-based.
Test [5] deals with T2, K-Ras G12V (Homo sapiens, UniProt P01116, G12V). Briefly: GTP-K-Ras and cRAF interaction assay (GppNp-K-Ras), K-Ras G12V. The note with it: read-out: K-Ras G12V GppNp Biochemical Activity (IC50).
Test [6] has as its target T2, K-Ras G12V. Description: SOS1 catalyzed nucleotide exchange assay (GDP form K-Ras), K-Ras G12V. The note with it: read-out: K-Ras G12V GDP Biochemical Activity (IC50).
For a further test, the target named is K-Ras G13D (Homo sapiens, UniProt P01116, G13D). Briefly: GTP-K-Ras and cRAF interaction assay (GppNp-K-Ras), K-Ras G13D. The note with it: read-out: K-Ras G13D GppNp Biochemical Activity (IC50).
For the next test, the system named is AGS cells (K-Ras G12D). Briefly: 2D cell growth inhibition assay, AGS. It counts as cell-based. The note with it: Homo sapiens, 144 h, 6 days, absolute IC50.
The target of test [7] is T1, K-Ras WT. Briefly: SOS1 catalyzed nucleotide exchange assay (GDP form K-Ras), K-Ras WT. The settings on record: read-out: K-Ras WT GDP Biochemical Activity (IC50).
A further test concerns the target K-Ras G12D (Homo sapiens, UniProt P01116, G12D). Description: GTP-K-Ras and cRAF interaction assay (GppNp-K-Ras), K-Ras G12D. The settings on record: read-out: K-Ras G12D GppNp Biochemical Activity (IC50).
For another test, the target named is K-Ras Q61H (Homo sapiens, UniProt P01116, Q61H). Briefly: SOS1 catalyzed nucleotide exchange assay (GDP form K-Ras), K-Ras Q61H. The settings on record: read-out: K-Ras Q61H GDP Biochemical Activity (IC50).
The subject of test [8] is p-ERK in TCC-PAN2 cells (K-Ras G12R). Description: Phospho-ERK1/2(THR202/TYR204) HTRF assay, TCC-PAN2. In kind it is cell-based. The settings on record: 2 hours incubation.
The next test deals with MKN-1 cells (K-Ras WT). Briefly: 3D cell growth inhibition assay, MKN-1. In kind it is cell-based. The note with it: Homo sapiens, 144 h, MKN-1, K-Ras WT, 6 days, absolute IC50.
The target of a further test is K-Ras G12A (Homo sapiens, UniProt P01116, G12A). Briefly: SOS1 catalyzed nucleotide exchange assay (GDP form K-Ras), K-Ras G12A. The settings on record: read-out: K-Ras G12A GDP Biochemical Activity (IC50).
Test [9] deals with p-ERK in MKN-1 cells (K-Ras WT amplification). Briefly: Phospho-ERK1/2(THR202/TYR204) HTRF assay, MKN-1. It counts as cell-based. The note with it: Homo sapiens; MKN-1, K-Ras WT, 2 hours incubation.
Test [10] has as its system p-ERK in NCI-H747 cells (K-Ras G13D).
The target in test [11] is T3, K-Ras G12C (Homo sapiens, UniProt P01116, G12C). Description: SOS1 catalyzed nucleotide exchange assay (GDP form K-Ras), K-Ras G12C. The settings on record: read-out: K-Ras G12C GDP Biochemical Activity (IC50).
Test [12] relates to p-ERK in NCI-H358 cells (K-Ras G12C). Description: Phospho-ERK1/2(THR202/TYR204) HTRF assay, NCI-H358. In kind it is cell-based. The note with it: Homo sapiens, 2 hours incubation.
The test system of test [13] is NCI-H460 cells (K-Ras Q61H). Description: 3D cell growth inhibition assay, NCI-H460. In kind it is cell-based. The settings on record: Homo sapiens, 144 h, 6 days, absolute IC50.
The subject of test [14] is p-ERK in NCI-H460 cells (K-Ras Q61H). Description: Phospho-ERK1/2(THR202/TYR204) HTRF assay, NCI-H460. The note with it: Homo sapiens, 2 hours incubation. In kind it is cell-based.
Another test has as its target K-Ras G12R (Homo sapiens, UniProt P01116, G12R). Briefly: SOS1 catalyzed nucleotide exchange assay (GDP form K-Ras), K-Ras G12R. The settings on record: read-out: K-Ras G12R GDP Biochemical Activity (IC50).
In test [15] the target is T3, K-Ras G12C. Description: biochemical.
Test [16] relates to TCC-PAN2 cells (K-Ras G12R). Briefly: 3D cell growth inhibition assay, TCC-PAN2. It counts as cell-based. The note with it: 144 h, 6 days, absolute IC50.

`C#Cc1c(F)ccc2cc(O)cc(-c3ncc4c(N5CCOC[C@@H](CC#N)C5)nc(OC[C@@]56CCCN5C[C@H](F)C6)nc4c3F)c12` (single isomer, unassigned) [Compound 14A]: the IC50 is 890 nM in [1]; over 1000 nM in the test with SW620 cells (K-Ras G12V); 6190 nM in [2]; 755 nM at K-Ras WT [3]; 537 nM in test [4]; 1480 nM at K-Ras G12V [5]. The IC50 at K-Ras G12V [6] was 9.61 nM; at K-Ras G13D it was 26.8 nM; with AGS cells (K-Ras G12D), 610 nM; at K-Ras WT [7] it was 12.9 nM; on K-Ras G12D it was 210 nM.
With `C#Cc1c(F)ccc2cc(O)cc(-c3ncc4c(N5C6CCOCC5C6)nc(OC[C@@]56CCCN5C[C@H](F)C6)nc4c3F)c12` (stereo partly drawn) [Compound 42, 4-(4-(3-oxa-7-azabicyclo[4.1.1]octan-7-yl)-8-fluoro-2-(((2R,7aS)-2-fluorotetrahydro-1H-pyrrolizin-7a(5H)-yl)methoxy)pyrido[4,3-d]pyrimidin-7-yl)-5-ethynyl-6-fluoronaphthalen-2-ol trifluoroacetic acid], the IC50 at K-Ras Q61H is 1.51 nM; in test [1], 3.02 nM; in test [8], about 1000 nM; with SW620 cells (K-Ras G12V), 4.18 nM; in [2] it was 135 nM; in the test with MKN-1 cells (K-Ras WT) it was 8.69 nM. Besides, the IC50 in test [4] turned out to be 10.1 nM; at K-Ras G12A it was 1.65 nM; in [9], 7.55 nM; on K-Ras G12V [6] it was 0.99 nM; in the test with AGS cells (K-Ras G12D), 39.1 nM; in [10], 2.56 nM. The IC50 is 1.46 nM at K-Ras G12C [11]; 7.37 nM in [12]; 113 nM in test [13]; 1.26 nM on K-Ras WT [7]; 10 nM in test [14]; 1.05 nM on K-Ras G12R. In addition, the IC50 against K-Ras G12C [15] was 556 nM; in test [16], 428 nM.
